This assay relates to Trichoderma virens ATCC 9645. In words: growth yield (OD600) relative to untreated control; higher = less growth inhibition. Conditions: compound concentration: 100 uM. The method in brief: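 A biocide at 200 ng ml^−1 was co-applied to some wells, and library compounds were present in all test wells at 100 μM final. The wells held 100 μl of Trichoderma virens ATCC 9645 spores at 15,000 spores ml^−1 in potato dextrose broth, grown at 30 °C in 96-well plates, with OD600 read at 40 h and 72 h. Results are relative growth against the control without either agent, averaged across duplicate screens.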

The values that follow come from the supplement of paper PMC8007513.

Structures can show the parent of a compound that is named as a salt. ± gives the standard error. Hit rate of the full screen: of about 1,300 compounds, about 75 (6%) showed an effect of 50% or more. The list shows a part of the results.

Take `CN1CCN(C(c2ccccc2)c2ccc(Cl)cc2)CC1` (centres undefined) [Chlorcyclizine hydrochloride]: the growth yield (40 h) was 86.25 ± 0.16% and the growth yield (72 h) was 92.9 ± 1.3%.

The compound `O=C(N/N=C/c1ccc([N+](=O)[O-])o1)c1ccc(O)cc1` [Nifuroxazide] yielded a growth yield (40 h) of 90.1 ± 2.4% and a growth yield (72 h) of 89 ± 2.2%.

`CCC(=O)[C@@]1(C)[C@H](C)C[C@H]2[C@@H]3CCC4=CC(=O)C=C[C@]4(C)[C@H]3[C@@H](O)C[C@@]21C` [Rimexolone]: the growth yield (40 h) is 112 ± 14% and the growth yield (72 h) was 106 ± 8.3%.

Turning to `CCc1cc(C(N)=S)ccn1` [Ethionamide], the growth yield turned out to be 102 ± 3% (40 h) and 103 ± 2% (72 h).

Regarding `CC(=O)Nc1c(I)c(NC(C)=O)c(I)c(C(=O)O)c1I` [Diatrizoic acid dihydrate], the growth yield by setting is: (40 h) 104 ± 3.6%; (72 h) 101 ± 1.6%.

As to `CN(N=O)C(=O)N[C@@H](C=O)[C@@H](O)[C@H](O)[C@H](O)CO` [Streptozotocin], the growth yield is, setting by setting: (40 h) 103 ± 2.1%; (72 h) 97.01 ± 0.52%.

Regarding `C#C[C@]1(O)CC[C@H]2[C@@H]3[C@H](C)CC4=C(CCC(=O)C4)[C@H]3CC[C@@]21C` [Tibolone], the growth yield is, setting by setting: (40 h) 88.31 ± 0.64%; (72 h) 90.72 ± 0.1%.

As to `COc1cc(C(=O)N2CCOCC2)cc(OC)c1OC` [Trimetozine], the growth yield runs as follows: (40 h) 103 ± 2.9%; (72 h) 97.95 ± 0.21%.

With `CC(=O)OCC(=O)[C@@]1(O)CC[C@H]2[C@@H]3CCC4=CC(=O)C=C[C@]4(C)[C@@]3(F)[C@@H](O)C[C@@]21C` [Isoflupredone acetate], the growth yield by setting is: (40 h) 104 ± 4.1%; (72 h) 99.6 ± 2.3%.

`CN(C)CCCOc1nn(Cc2ccccc2)c2ccccc12` [Benzydamine hydrochloride]: the growth yield is 94.8 ± 2.4% (40 h) and 100 ± 4% (72 h).

With `Nc1ccc(S(=O)(=O)Nc2ccc(Cl)nn2)cc1` [Sulfachloropyridazine], the growth yield worked out at 94.5 ± 3.6% (40 h) and 94.3 ± 1.8% (72 h).

For the compound `COc1cc2nc(N3CCN(C(=O)C4CCCO4)CC3)nc(N)c2cc1OC` (centres undefined) [Terazosin hydrochloride], the growth yield reads like this: (40 h) 104 ± 3.5%; (72 h) 98.7 ± 2.4%.

Consider `NS(=O)(=O)c1cc2c(cc1Cl)NCNS2(=O)=O` [Hydrochlorothiazide], for which the growth yield is 106 ± 6% (40 h) and 102 ± 4.5% (72 h).

The compound `C[N+]1(C)CCC(=C(c2ccccc2)c2ccccc2)CC1` [Diphemanil methylsulfate] showed a growth yield (40 h) of 98.6 ± 6.2% and a growth yield (72 h) of 97.2 ± 3%.

`CN(C)CCc1c[nH]c2ccc(C[C@H]3COC(=O)N3)cc12` [Zolmitriptan] had a growth yield (40 h) of 106 ± 1.3% and a growth yield (72 h) of 101 ± 1.1%.

With `CN(C)CCC=C1c2ccccc2C=Cc2ccccc21` [Cyclobenzaprine hydrochloride], the growth yield runs as follows: (40 h) 90.86 ± 0.32%; (72 h) 89.2 ± 6%.

With `O=c1[nH]c(=O)n([C@H]2C[C@H](O)[C@@H](CO)O2)cc1F` [Floxuridine], the growth yield reads like this: (40 h) 11.1 ± 3.8%; (72 h) 46.3 ± 9.3%.

As to `CNNCc1ccc(C(=O)NC(C)C)cc1` [Procarbazine hydrochloride], the growth yield worked out at 91.2% (40 h) and 83.1 ± 4% (72 h).

On to `COc1cc(C)c(/C=C/C(C)=C/C=C/C(C)=C/C(=O)O)c(C)c1C` [Acitretin], for which the growth yield is 95.1 ± 3% (40 h) and 89.2 ± 3.7% (72 h).

On to `CC(C)OC(=O)CCC/C=C\C[C@@H]1[C@@H](CC[C@@H](O)CCc2ccccc2)[C@H](O)C[C@@H]1O` [Latanoprost], for which the growth yield reads like this: (40 h) 91.8 ± 9.2%; (72 h) 90.6 ± 7.5%.

Take `CC(=O)Oc1cc(C(C)C)c(OCCN(C)C)cc1C` [Moxisylyte hydrochoride]: the growth yield (40 h) turned out to be 100 ± 1.1% and the growth yield (72 h) was determined as 97.4 ± 1.1%.

In the case of `CC(c1cc2ccccc2s1)N(O)C(N)=O` (centres undefined) [Zileuton], the growth yield reads like this: (40 h) 94.5 ± 1.4%; (72 h) 92 ± 2.2%.
